Source: the supplement of paper PMC8728848
The list shows a part of the results.

Experiments:
Experiment in all cases: glycan array binding signal (z-score within array); higher = stronger binding
Conditions in all cases: glycan notation: IUPAC condensed, linker removed
Gal6S(b1-4)Glc = target: Gal6S(b1-4)Glc
Procedure, shortened: (§1)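 Negative Z-scores can be read as non-binding. The Z-score is calculated within each array and then averaged across arrays of one protein sequence at different concentrations or buffers and across linkers. Arrays, 3228 in all, were curated from the Consortium for Functional Glycomics database and kept only where the protein sequence was available.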

Gal6S(b1-4)Glc6S = target: Gal6S(b1-4)Glc6S
Procedure, shortened: as §1

Gal6S(b1-4)GlcNAc = target: Gal6S(b1-4)GlcNAc
Procedure, shortened: as §1

GalNAc(a1-3)Gal = target: GalNAc(a1-3)Gal
Procedure, shortened: as §1

GalNAc(a1-3)GalNAc = target: GalNAc(a1-3)GalNAc
Procedure, shortened: as §1

[1] = target: GalNAc(b1-3)Gal(a1-4)Gal(b1-4)GlcNAc
Procedure, shortened: as §1

GalNAc(b1-4)GlcNAc = target: GalNAc(b1-4)GlcNAc
Procedure, shortened: as §1

Glc(a1-4)Glc = target: Glc(a1-4)Glc
Procedure, shortened: as §1

Glc(a1-6)Glc(a1-6)Glc = target: Glc(a1-6)Glc(a1-6)Glc
Procedure, shortened: as §1

Glc(b1-4)Glc = target: Glc(b1-4)Glc
Procedure, shortened: as §1

Glc(b1-6)Glc = target: Glc(b1-6)Glc
Procedure, shortened: as §1

GlcA(b1-3)Gal = target: GlcA(b1-3)Gal
Procedure, shortened: as §1

GlcA(b1-6)Gal = target: GlcA(b1-6)Gal
Procedure, shortened: as §1

[2] = target: GlcNAc(a1-3)Gal(b1-4)GlcNAc
Procedure, shortened: as §1

[3] = target: GlcNAc(a1-6)Gal(b1-4)GlcNAc
Procedure, shortened: as §1

[4] = target: GlcNAc(b1-2)Gal(b1-3)GlcNAc
Procedure, shortened: as §1

[5] = target: GlcNAc(b1-2)Man(a1-3)[GlcNAc(b1-2)Man(a1-6)]Man(b1-4)GlcNAc(b1-4)GlcNAc
Procedure, shortened: as §1

GlcNAc(b1-3)Gal = target: GlcNAc(b1-3)Gal
Procedure, shortened: as §1

[6] = target: GlcNAc(b1-3)Gal(b1-3)GalNAc
Procedure, shortened: as §1

GlcNAc(b1-3)Gal(b1-4)Glc = target: GlcNAc(b1-3)Gal(b1-4)Glc
Procedure, shortened: as §1

[7] = target: GlcNAc(b1-3)Gal(b1-4)GlcNAc
Procedure, shortened: as §1

[8] = target: GlcNAc(b1-3)Gal(b1-4)GlcNAc(b1-3)Gal(b1-4)GlcNAc
Procedure, shortened: as §1

GlcNAc(b1-3)GalNAc = target: GlcNAc(b1-3)GalNAc
Procedure, shortened: as §1

[9] = target: GlcNAc(b1-3)[GlcNAc(b1-4)][GlcNAc(b1-6)]GlcNAc
Procedure, shortened: as §1

[10] = target: GlcNAc(b1-3)[GlcNAc(b1-6)]Gal(b1-4)GlcNAc
Procedure, shortened: as §1

[11] = target: GlcNAc(b1-3)[GlcNAc(b1-6)]GlcNAc
Procedure, shortened: as §1

[12] = target: GlcNAc(b1-4)Gal(b1-4)GlcNAc
Procedure, shortened: as §1

[13] = target: GlcNAc(b1-4)GlcNAc(b1-4)GlcNAc
Procedure, shortened: as §1

[14] = target: GlcNAc(b1-4)GlcNAc(b1-4)GlcNAc(b1-4)GlcNAc(b1-4)GlcNAc
Procedure, shortened: as §1

[15] = target: GlcNAc(b1-4)GlcNAc(b1-4)GlcNAc(b1-4)GlcNAc(b1-4)GlcNAc(b1-4)GlcNAc
Procedure, shortened: as §1

[16] = target: GlcNAc(b1-4)[GlcNAc(b1-6)]GalNAc
Procedure, shortened: as §1

[17] = target: GlcNAc(b1-6)Gal(b1-4)GlcNAc
Procedure, shortened: as §1

GlcNAc(b1-6)GalNAc = target: GlcNAc(b1-6)GalNAc
Procedure, shortened: as §1

Kdn(a2-3)Gal(b1-3)GlcNAc = target: Kdn(a2-3)Gal(b1-3)GlcNAc
Procedure, shortened: as §1

Kdn(a2-3)Gal(b1-4)GlcNAc = target: Kdn(a2-3)Gal(b1-4)GlcNAc
Procedure, shortened: as §1

[18] = target: Man(a1-2)Man(a1-2)Man(a1-3)Man
Procedure, shortened: as §1

[19] = target: Man(a1-2)Man(a1-2)Man(a1-3)[Man(a1-2)Man(a1-3)[Man(a1-2)Man(a1-6)]Man(a1-6)]Man(b1-4)GlcNAc(b1-4)GlcNAc
Procedure, shortened: as §1

[20] = target: Man(a1-2)Man(a1-2)Man(a1-3)[Man(a1-2)Man(a1-6)[Man(a1-3)]Man(a1-6)]Man(b1-4)GlcNAc(b1-4)GlcNAc
Procedure, shortened: as §1

[21] = target: Man(a1-2)Man(a1-2)Man(a1-6)[Man(a1-3)]Man
Procedure, shortened: as §1

Man(a1-2)Man(a1-3)Man = target: Man(a1-2)Man(a1-3)Man
Procedure, shortened: as §1

[22] = target: Man(a1-2)Man(a1-3)[Man(a1-2)Man(a1-6)]Man
Procedure, shortened: as §1

[23] = target: Man(a1-2)Man(a1-3)[Man(a1-3)[Man(a1-6)]Man(a1-6)]Man(b1-4)GlcNAc(b1-4)GlcNAc
Procedure, shortened: as §1

[24] = target: Man(a1-2)Man(a1-3)[Man(a1-6)]Man(a1-6)[Man(a1-2)Man(a1-3)]Man(b1-4)GlcNAc(b1-4)GlcNAc
Procedure, shortened: as §1

Man(a1-3)[Man(a1-6)]Man = target: Man(a1-3)[Man(a1-6)]Man
Procedure, shortened: as §1

[25] = target: Man(a1-3)[Man(a1-6)]Man(a1-6)[Man(a1-3)]Man(b1-4)GlcNAc(b1-4)GlcNAc
Procedure, shortened: as §1

[26] = target: Man(a1-3)[Man(a1-6)]Man(b1-4)GlcNAc(b1-4)GlcNAc
Procedure, shortened: as §1

Man(b1-4)GlcNAc = target: Man(b1-4)GlcNAc
Procedure, shortened: as §1

Neu5Ac(a2-3)Gal = target: Neu5Ac(a2-3)Gal
Procedure, shortened: as §1

[27] = target: Neu5Ac(a2-3)Gal(b1-3)GalNAc
Procedure, shortened: as §1

B1: TbCVNHOa (Tuber borchii), Q5MK11 (protein)
chain: GSHIGPYMSYADSSRNAVLTNGGRTLRAECRNADGNWVTSELDLDTCIGNPNGFLGWGMQNFSHSSEDIKLEEGGRKLTCRPKTVDGGFRERQGIDLNRIQNVNGRLVFQ
Q: How did the “glycan array binding signal (z-score)” value (Gal6S(b1-4)Glc) turn out when B1 was run?
A: The value was -0.213.

Q: What about the “glycan array binding signal (z-score)” value (Gal6S(b1-4)Glc6S) of the same binder?
A: Its value is -0.246.

Q: And the “glycan array binding signal (z-score)” value (Gal6S(b1-4)GlcNAc)?
A: Its value is -0.177.

Q: And the “glycan array binding signal (z-score)” value (GalNAc(a1-3)Gal)?
A: Its value is 0.011.

Q: What about the “glycan array binding signal (z-score)” value (GalNAc(a1-3)GalNAc) of the same binder?
A: Its value is -0.274.

Q: And the “glycan array binding signal (z-score)” value [1]?
A: The value was -0.155.

Q: And the “glycan array binding signal (z-score)” value (GalNAc(b1-4)GlcNAc)?
A: The value was -0.239.

Q: What about the “glycan array binding signal (z-score)” value (Glc(a1-4)Glc) of the same binder?
A: Its value is -0.256.

Q: And the “glycan array binding signal (z-score)” value (Glc(a1-6)Glc(a1-6)Glc)?
A: Its value is 0.079.

Q: And the “glycan array binding signal (z-score)” value (Glc(b1-4)Glc)?
A: The value was 0.33.

Q: And the “glycan array binding signal (z-score)” value (Glc(b1-6)Glc)?
A: Its value is 1.84.

Q: And the “glycan array binding signal (z-score)” value (GlcA(b1-3)Gal)?
A: Its value is -0.21.

Q: What about the “glycan array binding signal (z-score)” value (GlcA(b1-6)Gal) of the same binder?
A: The value was -0.243.

Q: What about the “glycan array binding signal (z-score)” value [2] of the same binder?
A: Its value is -0.293.

Q: What about the “glycan array binding signal (z-score)” value [3] of the same binder?
A: The value was -0.292.

Q: And the “glycan array binding signal (z-score)” value [4]?
A: Its value is -0.293.

Q: What about the “glycan array binding signal (z-score)” value [5] of the same binder?
A: Its value is -0.25.

Q: What about the “glycan array binding signal (z-score)” value (GlcNAc(b1-3)Gal) of the same binder?
A: Its value is -0.283.

Q: What about the “glycan array binding signal (z-score)” value [6] of the same binder?
A: Its value is -0.222.

Q: And the “glycan array binding signal (z-score)” value (GlcNAc(b1-3)Gal(b1-4)Glc)?
A: The value was 0.192.

Q: And the “glycan array binding signal (z-score)” value [7]?
A: The value was -0.152.

Q: And the “glycan array binding signal (z-score)” value [8]?
A: Its value is -0.288.

Q: What about the “glycan array binding signal (z-score)” value (GlcNAc(b1-3)GalNAc) of the same binder?
A: Its value is -0.292.

Q: And the “glycan array binding signal (z-score)” value [9]?
A: Its value is -0.186.

Q: What about the “glycan array binding signal (z-score)” value [10] of the same binder?
A: The value was -0.228.

Q: What about the “glycan array binding signal (z-score)” value [11] of the same binder?
A: The value was -0.255.

Q: What about the “glycan array binding signal (z-score)” value [12] of the same binder?
A: The value was -0.168.

Q: What about the “glycan array binding signal (z-score)” value [13] of the same binder?
A: Its value is 0.018.

Q: And the “glycan array binding signal (z-score)” value [14]?
A: The value was -0.034.

Q: What about the “glycan array binding signal (z-score)” value [15] of the same binder?
A: The value was -0.189.

Q: And the “glycan array binding signal (z-score)” value [16]?
A: The value was -0.286.

Q: What about the “glycan array binding signal (z-score)” value [17] of the same binder?
A: The value was -0.247.

Q: What about the “glycan array binding signal (z-score)” value (GlcNAc(b1-6)GalNAc) of the same binder?
A: Its value is -0.246.

Q: And the “glycan array binding signal (z-score)” value (Kdn(a2-3)Gal(b1-3)GlcNAc)?
A: Its value is -0.227.

Q: And the “glycan array binding signal (z-score)” value (Kdn(a2-3)Gal(b1-4)GlcNAc)?
A: The value was -0.281.

Q: What about the “glycan array binding signal (z-score)” value [18] of the same binder?
A: Its value is 3.86.

Q: What about the “glycan array binding signal (z-score)” value [19] of the same binder?
A: The value was -0.196.

Q: And the “glycan array binding signal (z-score)” value [20]?
A: Its value is -0.234.

Q: And the “glycan array binding signal (z-score)” value [21]?
A: Its value is 0.342.

Q: And the “glycan array binding signal (z-score)” value (Man(a1-2)Man(a1-3)Man)?
A: The value was -0.199.

Q: What about the “glycan array binding signal (z-score)” value [22] of the same binder?
A: The value was -0.221.

Q: What about the “glycan array binding signal (z-score)” value [23] of the same binder?
A: Its value is -0.106.

Q: And the “glycan array binding signal (z-score)” value [24]?
A: Its value is -0.287.

Q: What about the “glycan array binding signal (z-score)” value (Man(a1-3)[Man(a1-6)]Man) of the same binder?
A: Its value is -0.27.

Q: And the “glycan array binding signal (z-score)” value [25]?
A: The value was -0.255.

Q: What about the “glycan array binding signal (z-score)” value [26] of the same binder?
A: Its value is 1.7.

Q: What about the “glycan array binding signal (z-score)” value (Man(b1-4)GlcNAc) of the same binder?
A: Its value is -0.29.

Q: And the “glycan array binding signal (z-score)” value (Neu5Ac(a2-3)Gal)?
A: The value was -0.27.

Q: What about the “glycan array binding signal (z-score)” value [27] of the same binder?
A: The value was -0.289.
